Laboratory results taken from US20250340662A1 (AKIRAM THERAPEUTICS, published 2025).

Experiments:
Human CD44 iso6-Fc = biological target: T1, Human CD44 iso6-Fc (human, UniProt P16070-6 21-606, limits assumed, chemically biotinylated in the form called Bio-CD44); experiment: SPR SCK, antibody immobilised, CD44-Fc injected
T1 construct: Negative control antigen, ProMab, HKB11 cells; also called Bio-CD44; bio-CD44
Protocol: (§1) The SPR measurements were performed on a BIAcore T200 instrument (Cytiva) using a SCK approach. Each antibody was directly immobilized onto a separate surface of a CM5 series S sensor chip using EDC/NHS amine coupling chemistry according to manufacturer's recommendations. Immobilization levels were set to 1500 RU. All experiments were performed at 25° C. in running buffer (HBS, 0.05% Tween20, pH 7.5). A three-fold dilution series of CD44v6 and negative control CD44, comprised of five concentrations ranging between 10-0.12 nM, were prepared in running buffer. A four-fold dilution series of human, cynomolgus and rabbit v6-peptide, respectively, comprised of five concentrations ranging between 100-0.39 nM, were also prepared in running buffer. Each dilution series were sequentially injected, starting with the lowest concentration first, over an immobilized antibody clone and chip surfaces were regenerated with 10 mM glycin-HCl, pH 2.1. See table 10 for specifications of antigens used in SPR measurements. By subtracting the response curve of a reference surface (an activated and deactivated chip surface) and to a blank run (running buffer injected instead of antigen) response curve sensorgrams were obtained. Data was analyzed using the Biacore T200 Evaluation 3.1 software and a 1:1 Langmuir binding model.

Human v6-peptide = biological target: T2, Human v6-peptide (human, N-terminal biotin); experiment: SPR SCK, antibody immobilised, peptide injected
T2 construct: Bachem #4108947, 43 amino acids, synthetic; also called Hm v6-peptide; hm v6-peptide
T2 peptide: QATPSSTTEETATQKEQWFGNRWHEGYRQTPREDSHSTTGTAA
Protocol: as §1

Cynomolgus v6-peptide = biological target: T3, Cynomolgus v6-peptide (cynomolgus, UniProt A0A2K5VJE0 387-429, N-terminal biotin); experiment: SPR SCK, antibody immobilised, peptide injected
T3 construct: domain: v6-region (43 amino acids); also called Cm v6-peptide; cm v6-peptide
T3 peptide: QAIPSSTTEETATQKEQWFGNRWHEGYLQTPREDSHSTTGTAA
Protocol: as §1

Human CD44v6 iso4-Fc [1] = biological target: T4, Human CD44v6 iso4-Fc (human, UniProt P16070-4 21-606, limits assumed, chemically biotinylated in the form called Bio-CD44v6); experiment: SPR SCK, antibody immobilised, CD44v6-Fc injected
T4 construct: Custom ordered from ProMab, produced in HKB11 cells; The biotinylated and the plain form are kept as one molecule; also called Bio-CD44v6; bio-CD44v6
Protocol: as §1

Human CD44v6 iso4-Fc [2] = biological target: T4, Human CD44v6 iso4-Fc; experiment: SPR SCK, antibody immobilised, CD44v6-Fc injected; apparent KD
Protocol: as §1

T4 sequence (P16070 other isoform, or with tags, fused parts or gaps limits assumed): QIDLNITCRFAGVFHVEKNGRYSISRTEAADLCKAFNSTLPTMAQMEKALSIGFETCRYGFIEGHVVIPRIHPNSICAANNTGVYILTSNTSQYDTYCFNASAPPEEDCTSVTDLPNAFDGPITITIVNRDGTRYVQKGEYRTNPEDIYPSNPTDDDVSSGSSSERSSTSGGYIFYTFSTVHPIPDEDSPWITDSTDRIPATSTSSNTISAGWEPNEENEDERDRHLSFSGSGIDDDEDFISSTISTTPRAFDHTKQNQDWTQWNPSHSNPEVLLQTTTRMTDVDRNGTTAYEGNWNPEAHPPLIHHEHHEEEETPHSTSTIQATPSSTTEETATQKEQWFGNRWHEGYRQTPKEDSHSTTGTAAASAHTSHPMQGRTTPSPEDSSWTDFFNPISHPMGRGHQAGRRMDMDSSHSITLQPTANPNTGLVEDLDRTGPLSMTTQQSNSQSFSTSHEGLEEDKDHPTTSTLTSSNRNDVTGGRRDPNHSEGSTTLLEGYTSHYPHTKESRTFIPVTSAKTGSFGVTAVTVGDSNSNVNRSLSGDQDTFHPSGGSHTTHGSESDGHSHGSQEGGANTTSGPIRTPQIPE
Chain of Human CD44 iso6-Fc (P16070 other isoform, or with tags, fused parts or gaps limits assumed): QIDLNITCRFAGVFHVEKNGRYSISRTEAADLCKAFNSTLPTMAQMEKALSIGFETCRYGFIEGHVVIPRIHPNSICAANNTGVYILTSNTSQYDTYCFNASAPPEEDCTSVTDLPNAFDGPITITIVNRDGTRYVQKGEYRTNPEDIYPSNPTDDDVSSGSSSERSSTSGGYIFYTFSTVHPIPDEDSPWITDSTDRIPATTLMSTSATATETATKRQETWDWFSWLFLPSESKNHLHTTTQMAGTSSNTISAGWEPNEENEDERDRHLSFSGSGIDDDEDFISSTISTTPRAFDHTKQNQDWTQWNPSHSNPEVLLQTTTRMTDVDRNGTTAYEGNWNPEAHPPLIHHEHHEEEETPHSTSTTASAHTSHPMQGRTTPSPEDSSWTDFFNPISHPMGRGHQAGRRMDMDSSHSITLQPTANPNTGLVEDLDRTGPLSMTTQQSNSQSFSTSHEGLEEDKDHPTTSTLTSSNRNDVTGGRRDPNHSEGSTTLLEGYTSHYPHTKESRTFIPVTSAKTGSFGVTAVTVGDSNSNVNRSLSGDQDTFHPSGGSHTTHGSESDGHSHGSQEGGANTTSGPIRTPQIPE

- Kd (Human v6-peptide): 8.6 nM
- koff (Human v6-peptide): 0.008 s⁻¹
- kon (Human v6-peptide): 930000 M⁻¹ s⁻¹
- Kd (Cynomolgus v6-peptide): 6.2 nM
- koff (Cynomolgus v6-peptide): 0.0062 s⁻¹
- kon (Cynomolgus v6-peptide): 990000 M⁻¹ s⁻¹
- koff (Human CD44v6 iso4-Fc [1]): 0.0001 s⁻¹
- kon (Human CD44v6 iso4-Fc [1]): 1.3e+06 M⁻¹ s⁻¹
- Kd (Human CD44v6 iso4-Fc [2]): 0.077 nM
B1: AL-MN114-465 IgG1 LALA (antibody)
VH: EVQLLESGGGLVQPGGSLRLSCAASGFSFGSYAMSWVRQAPGKGLEWVSAISAGGSSTFYADSVKGRFTISRDNSKNTLYLQMNSLRAEDTAVYYCARHYYSDSDYRSSAAMDYWGQGTLVTVSS[in this place human IgG1 constant region with changes]
VL: DIQMTQSPSSLSASVGDRVTITCRASQSISSYLNWYQQKPGKAPKLLIYTASSLQSGVPSRFSGSGSGTDFTLTISSLQPEDFATYYCQQDLYLLTFGQGTKLEIKRTVAAPSVFIFPPSDEQLKSGTASVVCLLNNFYPREAKVQWKVDNALQSGNSQESVTEQDSKDSTYSLSSTLTLSKADYEKHKVYACEVTHQGLSSPVTKSFNRGEC
notes: item 20 i) gives heavy 75 / light 94 without naming the format
- binding result (Human CD44 iso6-Fc): no binding (tested: 10 nM highest CD44 concentration)
